Source: publication PMC4336329 (PLoS ONE, 2015)
About 14,000 (4.5%) of roughly 310,000 compounds showed an effect of 50% or more. Effects have a minus sign here. This is one part of the list.

molecular target: human ether-à-go-go-related gene (hERG) potassium channel (human, UniProt Q12809); assay: primary screen, population patch clamp on CHO cells stably expressing hERG
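Further: peak tail current of the secondary pulse compared with the same well before compound.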

human ether-à-go-go-related gene (hERG) potassium channel, sequence (Q12809 whole entry, looked up): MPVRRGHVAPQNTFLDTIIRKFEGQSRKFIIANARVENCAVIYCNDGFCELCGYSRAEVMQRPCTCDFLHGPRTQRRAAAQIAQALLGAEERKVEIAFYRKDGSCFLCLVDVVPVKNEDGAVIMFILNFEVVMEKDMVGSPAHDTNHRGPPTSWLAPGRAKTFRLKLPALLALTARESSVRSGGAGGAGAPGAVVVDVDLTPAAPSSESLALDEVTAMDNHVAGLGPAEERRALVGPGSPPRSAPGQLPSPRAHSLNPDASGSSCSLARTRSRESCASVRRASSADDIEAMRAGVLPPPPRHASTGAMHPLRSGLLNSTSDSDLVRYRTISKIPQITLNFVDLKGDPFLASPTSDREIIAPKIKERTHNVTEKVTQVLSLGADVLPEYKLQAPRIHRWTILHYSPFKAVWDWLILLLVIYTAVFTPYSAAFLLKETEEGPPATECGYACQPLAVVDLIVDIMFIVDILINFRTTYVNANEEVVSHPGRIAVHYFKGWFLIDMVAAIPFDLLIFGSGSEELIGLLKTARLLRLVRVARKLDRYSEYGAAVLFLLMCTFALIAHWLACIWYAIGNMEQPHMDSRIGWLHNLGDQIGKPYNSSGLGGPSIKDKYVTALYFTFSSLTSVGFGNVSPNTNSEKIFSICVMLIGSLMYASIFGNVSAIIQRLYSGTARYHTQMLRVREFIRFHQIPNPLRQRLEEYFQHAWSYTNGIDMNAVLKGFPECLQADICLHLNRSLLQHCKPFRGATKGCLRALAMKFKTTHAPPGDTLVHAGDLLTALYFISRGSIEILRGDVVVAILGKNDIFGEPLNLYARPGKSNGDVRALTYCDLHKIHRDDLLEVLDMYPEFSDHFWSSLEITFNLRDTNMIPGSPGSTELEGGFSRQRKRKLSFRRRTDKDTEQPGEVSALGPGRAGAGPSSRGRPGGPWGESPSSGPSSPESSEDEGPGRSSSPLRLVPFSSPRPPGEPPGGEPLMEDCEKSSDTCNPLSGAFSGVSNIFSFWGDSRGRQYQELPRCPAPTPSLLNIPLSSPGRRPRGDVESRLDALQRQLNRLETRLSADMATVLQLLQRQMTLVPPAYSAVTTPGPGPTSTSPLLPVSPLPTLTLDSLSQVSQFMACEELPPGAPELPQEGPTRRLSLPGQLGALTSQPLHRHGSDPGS

Row | SMILES | hERG current change (%, negative = inhibition) at 10uM [%]
1 | CCOC(=O)CSC1=NN2CCS(=O)(=O)N=C2S1 | 14.8
2 | O=C(COc1cc([N+](=O)[O-])cc2cccnc12)NCCC1=CCCCC1 | -46.5
3 | Cc1ccn2c(NC(=O)c3ccco3)c(-c3ccccc3)nc2c1 | -23.7
4 | O=C(Nc1cccc(-c2nc3ccccc3s2)c1)C1=COCCO1 | 8.33
5 | Cc1nn(C)c2ncc(C(N)=O)c(Oc3cccnc3)c12 | 5.37
6 | COC(=O)C1CCN(C(=O)COC(=O)CNS(=O)(=O)c2ccc(SC)c([N+](=O)[O-])c2)CC1 | -21.9
7 | Cc1nc2nc(SCC(=O)NCCCN3CCCCCC3)nn2c(C)c1Cc1ccccc1 | -16.5
8 | COc1cccc(NC(=O)NCc2ccccn2)c1 | 11.3
9 | Cc1ccc(-n2c(Cc3cccn3C)nnc2SCC(=O)N2CCN(c3ccccc3)CC2)cc1 | -8.15
10 | COc1ccc(CCNC(=O)CCNC(=O)c2ccc([N+](=O)[O-])cc2)cc1 | -3.9
11 | Cc1cc(C)c(NC(=O)CCCSc2nnc(N)s2)c(C)c1 | -14.8
12 | Cc1c(C(=O)OCC(=O)NCCN2C(=O)CSC2=O)cccc1[N+](=O)[O-] | -25
13 | CN(C)c1ccnc(N(Cc2ccccc2)Cc2ccccc2)c1C#N.Cl | -6.74
14 | Cc1ccc(NC(=O)CSc2nc3ccccc3nc2N2CCCC2)cc1 | -7.28
15 | Cn1c(CCNC(=O)c2ccccc2)nc2ccccc21 | -8.6
16 | COc1ccc(CCNC(=O)CN2CCN(c3cccc(Cl)c3)CC2)cc1OC | -18.1
17 | CCCCn1c(N)c(NCCC(C)C)c(=O)[nH]c1=O | -5.59
18 | CCOC(=O)CNC(=S)N(Cc1ccc(C)cc1)Cc1ccc(C)o1 | -37.8
19 | CC(=O)Nc1ccc(NC(=O)C2CCCN2C(=O)Nc2ccc(F)c([N+](=O)[O-])c2)cc1 (stereo not shown) | -1.17
20 | CC(C)NC(=O)Nc1cccs1 | -3.62
21 | Cc1nn(CC(=O)NCCCN2CCCCC2)c(=O)c2cccn12 | 19.5
22 | CCCN(Cc1ccc(C)cc1)C(=O)c1ccc(CNS(=O)(=O)c2ccc(C(C)=O)cc2)cc1 | 8.56
23 | COc1cc(NC(=O)c2ccc(=O)[nH]n2)cc(OC)c1OC | 16.4
24 | CCOC(=O)c1sc(=NC(=O)c2ccc(Cl)s2)n(C)c1C | 6.74
25 | CCn1c(SCC(=O)NC2CCCCC2)nnc1C(CO)NC(=O)c1ccccc1 (stereo not shown) | 16.9
